The other results are listed elsewhere or left out.
Tests used:
[1] = system: HSkMC (human skeletal muscle cells); experiment: cytotoxicity call (relative viability < 0.9); conditions: 10 µM
[2] = system: HepG2; experiment: cytotoxicity call (relative viability < 0.9); conditions: 10 µM
[3] = system: S. aureus RN4220; experiment: growth inhibition call (relative growth <= 0.2); conditions: 50 µM

Row | SMILES | cytotoxicity call [1] | cytotoxicity call [2] | growth inhibition call [3]
1 | CC(C)NC(=O)N(C)C[C@@H]1Oc2ccc(NC(=O)NC3CCCCC3)cc2CC(=O)N([C@H](C)CO)C[C@H]1C | inactive | inactive | inactive
2 | Cn1cnc(S(=O)(=O)N2C[C@H](O)COC[C@@H]3O[C@@H](CC(=O)NC4CCCC4)CC[C@H]32)c1 | inactive | inactive | inactive
3 | C[C@@H]1CCCCO[C@H](CN(C)Cc2ccc3c(c2)OCO3)[C@H](C)CN([C@H](C)CO)C(=O)c2cc(NC(=O)Nc3ccc4c(c3)OCO4)ccc2O1 | inactive | active | inactive
4 | COc1ccc2c3c([nH]c2c1)[C@@H](CO)N(C[C@]13CCN(CC1)C(=O)NC(C)C)C(=O)CN1CCOCC1 | inactive | inactive | inactive
5 | COc1ccc(S(=O)(=O)N(C)C[C@H]2Oc3ccc(NS(=O)(=O)c4cccs4)cc3C(=O)N([C@H](C)CO)C[C@H]2C)cc1 | inactive | inactive | inactive
6 | C[C@H]1CCCCO[C@@H](CN(C)C(=O)Nc2ccc(F)cc2)[C@@H](C)CN([C@@H](C)CO)C(=O)c2cc(NS(=O)(=O)c3cccs3)ccc2O1 | inactive | inactive | inactive
7 | COc1ccc(NC(=O)Nc2ccc3c(c2)C(=O)N([C@H](C)CO)C[C@H](C)[C@H](CN(C)Cc2ccc4c(c2)OCO4)OCCCC[C@H](C)O3)cc1 | inactive | active | inactive
8 | Cc1noc(C)c1S(=O)(=O)Nc1ccc2c(c1)CC(=O)N([C@H](C)CO)C[C@H](C)[C@@H](CN(C)Cc1ccncc1)O2 | inactive | inactive | inactive
9 | C[C@@H]1CN([C@@H](C)CO)S(=O)(=O)c2ccc(C#CC3(O)CCCC3)cc2O[C@@H]1CN(C)C(=O)Cc1cccnc1 | inactive | inactive | inactive
10 | Cc1ccc(S(=O)(=O)N(C)C[C@H]2Oc3c(NC(=O)C4CC4)cccc3C(=O)N([C@@H](C)CO)C[C@@H]2C)cc1 | inactive | inactive | inactive
11 | CC(C)C#Cc1ccc2c(c1)O[C@@H](CN(C)C(=O)c1cnccn1)[C@H](C)CN([C@@H](C)CO)S2(=O)=O | inactive | inactive | inactive
12 | C[C@H](CO)N1C[C@H](C)[C@@H](CN(C)Cc2ccc(Oc3ccccc3)cc2)Oc2ccc(NS(=O)(=O)c3ccccc3)cc2CC1=O | inactive | inactive | inactive
13 | CC(=O)/C(C)=N/O | inactive | inactive | inactive
14 | CO[C@@H]1CN(C)C(=O)c2ccc(NC(=O)C3CCCC3)cc2OC[C@@H](C)N(C(=O)Nc2ccc(C(F)(F)F)cc2)C[C@H]1C | inactive | inactive | inactive
15 | CC(N)(Cc1ccc(O)c(O)c1)C(=O)O (stereo not drawn) | inactive | active | inactive
16 | CC(C)Oc1oc(C(=O)NC2CCCCC2)c(-c2ccc(Cl)cc2)c1S(=O)(=O)c1ccc(Cl)cc1 | inactive | inactive | inactive
17 | Cc1ccc(S(=O)(=O)Nc2ccc3c(c2)C(=O)N([C@H](C)CO)C[C@@H](C)[C@@H](CN(C)S(=O)(=O)c2ccccc2)O3)cc1 | inactive | inactive | inactive
18 | O=C(C[C@@H]1C[C@@H]2c3cc(NS(=O)(=O)c4ccc(F)cc4)ccc3O[C@@H]2[C@@H](CO)O1)NCc1ccccc1F | inactive | inactive | inactive
19 | CCOC(=O)c1cc2c(c(-c3cccc(Br)c3)n1)[C@@H](CCO[Si](C)(C)C(C)(C)C)N([S@](=O)C(C)(C)C)C2 | inactive | inactive | inactive
20 | C[C@@H]1CN([C@H](C)CO)C(=O)c2ccccc2-c2ccccc2CO[C@@H]1CN(C)Cc1cccc2c1OCCCO2 | inactive | inactive | inactive
21 | C[C@H]1CN([C@@H](C)CO)C(=O)c2cc(NS(=O)(=O)c3cccs3)ccc2O[C@H]1CN(C)Cc1ccc(Oc2ccccc2)cc1 | inactive | inactive | inactive
22 | COc1ccc(S(=O)(=O)N(C)C[C@H]2Oc3c(NC(=O)C4CCOCC4)cccc3C(=O)N([C@H](C)CO)C[C@@H]2C)cc1 | inactive | inactive | inactive
23 | C[C@@H]1CCCCO[C@H](CN(C)Cc2ccccc2)[C@@H](C)CN([C@H](C)CO)C(=O)c2cc(NC(=O)Nc3ccccc3)ccc2O1 | inactive | inactive | inactive
24 | C[C@H](CO)N1C[C@H](C)[C@@H](CN(C)S(=O)(=O)c2cccs2)OCCCC[C@H](C)Oc2ccc(NC(=O)NC3CCCCC3)cc2C1=O | inactive | inactive | inactive
25 | Cc1noc(C)c1S(=O)(=O)N(C)C[C@@H]1OCCCC[C@@H](C)Oc2ccc(NC(=O)Nc3cccc4ccccc34)cc2C(=O)N([C@@H](C)CO)C[C@H]1C | inactive | inactive | inactive
26 | NC[C@@H](c1cccnc1)S(=O)(=O)c1ccc(Cl)cc1 | inactive | inactive | inactive

— the antibiotic and cytotoxicity screens of Wong et al. (2023)
